# Reference: PubChem BioAssay AID463173 (ICCB-Longwood Screening Facility, Harvard Medical School, 2010)
# Screen size: about 52,000 compounds; about 4,300 (8.3%) were called active. Cut-off read from the data, not from the text of the source: active = survival mostly below about 52% (no sharp cut-off); inactive = mostly above about 56%. The list shows a part of the results.
# System: DeltatarO mutant
# Assay: growth inhibition of S. aureus wild type versus tarO mutant, primary screen, teichoic acid synthesis inhibitors, RN4220, OD600 (AID 463173)
# Conditions: OD600, 18 h, hits give low values, screened at 18.75 µg/mL (by protocol)
row,SMILES,survival
1,COc1cc(NC(=O)NCC2CCN(Cc3ccccc3Cl)CC2)cc(OC)c1OC,inactive: 89%
2,COc1ccc(-c2cn3nc(N4CCCC(C(=O)Nc5cc(C)ccc5C)C4)sc3n2)cc1 (configuration not stated),inactive: 76%
3,CCN1C(=O)C(O)(CC(=O)c2ccc(OC)c(OC)c2)c2ccccc21 (configuration not stated),inactive: 81%
4,Fc1ccc(-n2ncc3c(NCCCn4ccnc4)ncnc32)cc1,inactive: 89%
5,O=C(N1CCOCC1)C1(c2ccc(Cl)cc2)CCCC1,inactive: 86%
6,COc1cccc(C2NC(=O)c3n[nH]c(-c4cccs4)c32)c1 (configuration not stated),inactive: 71%
7,COc1ccc(Br)cc1CNC(=O)c1cnc2sc(N3CCCC3)nn2c1=O,inactive: 98%
8,COc1ccc(C(=O)N(Cc2cc(OC)c(OC)c(OC)c2)c2ccccn2)cc1,inactive: 76%
9,O=C(Cn1c(=O)nc(-c2ccccc2)c2ccccc21)NCCc1ccc(Cl)cc1,inactive: 70%
10,CN1CCN(C(CNC(=O)c2ccccc2F)c2ccc3c(c2)OCO3)CC1 (configuration not stated),inactive: 87%
11,Cc1ccc2sc(N3CCN(C(=O)CCS(=O)(=O)c4ccc(Cl)cc4)CC3)nc2c1C,inactive: 64%
12,O=C(NCCc1ccc(F)cc1)C(=O)NCC(c1cccs1)S(=O)(=O)c1ccc(F)cc1 (configuration not stated),inactive: 71%
13,Cc1ccc(-c2cn3nc(N4CCCC(C(=O)Nc5ccc(F)cc5)C4)sc3n2)cc1 (configuration not stated),inactive: 75%
14,Cc1ccc(N(CC(=O)N2CCN(c3ccc(Cl)cc3)CC2)S(=O)(=O)c2c(C)nn(C)c2C)cc1,inactive: 82%
15,CCC(Sc1nc2ncccc2[nH]1)C(=O)Nc1cccc(OC)c1 (configuration not stated),inactive: 67%
16,CCCN(CCC)C(=O)Cn1c(=O)n(-c2cccc(OC)c2)c(=O)c2c(C)c(C(=O)N(C)C)sc21,inactive: 75%
17,CCOC(=O)/C(C#N)=C\c1cccn1C,inactive: 65%
18,CCC1CCCCN1CCCNC(=O)c1[nH]c2ccccc2c1Sc1ccc(Cl)cc1 (configuration not stated),active: -1%
19,CCOc1ccc(C(c2c(O)cc(C)n(CCOC)c2=O)N2CCN(c3ccccc3)CC2)cc1 (configuration not stated),inactive: 93%

row,SMILES,survival
1,Cc1c2cnn(CC(=O)N3CCCCC3)c(=O)c2c(C)n1Cc1ccc(F)cc1,inactive: 67%
2,COc1cccc(CNC(=O)C(CC(C)C)NS(=O)(=O)c2ccc3c(c2)oc(=O)n3C)c1 (configuration not stated),inactive: 127%
3,Cc1ccc(Cl)cc1NS(=O)(=O)c1ccc2oc(=O)c3ncn(C)c3c2c1,inactive: 124%
4,Cc1ccc2c(c1)C(=O)OC(C(=O)Nc1ncc(Cc3ccc(C(C)C)cc3)s1)C2 (configuration not stated),inactive: 83%
5,CCN(C(=O)CCS(=O)(=O)c1cc2[nH]c(=O)c(=O)[nH]c2cc1C)c1ccccc1,inactive: 92%
6,COc1ccc(-c2noc(N3CCC(C(=O)Nc4ccc(F)cc4Cl)CC3)n2)cc1,inactive: 71%
7,COc1ccccc1OCc1nnc(SCCN2CCOCC2)o1,inactive: 59%
8,COc1ccc(C)cc1NC(=O)c1ccc2c(=O)n3c(nc2c1)CCCCC3,inactive: 65%
9,Cc1cccc(-c2nc3c4ccccc4nc(N4CCN(c5ccccc5F)CC4)n3n2)c1,inactive: 65%
10,Cc1ccc(NC(=O)C(Cc2ccccc2)n2cccc2)cc1 (configuration not stated),inactive: 76%
11,O=C(O)C1CCCN1C(=O)c1cncc(Br)c1 (configuration not stated),inactive: 64%
12,COc1ccccc1OCCCSc1nc(-c2ccc(C(C)(C)C)cc2)nc2cc(=O)[nH]n12,inactive: 81%
13,COCCCn1c(=O)c2sccc2n2c(CCCC(=O)Nc3cc(C)cc(C)c3)nnc12,inactive: 64%
14,COc1ccc(CNC(=O)Cn2ncc3c4ccccc4n(Cc4cccc(Cl)c4)c3c2=O)cc1,inactive: 86%
15,COc1ccc(OC)c(NCc2cccn2-c2nnc(N3CCCCC3)s2)c1,inactive: 93%
16,CN1CCc2c(sc3c2C(=O)NC(c2ccc(OC(=O)c4ccccc4)cc2)N3)C1 (configuration not stated),inactive: 43%
17,Cc1ccc(C)c(S(=O)(=O)c2cn(C)c3cc(N4CCCCC4C)c(F)cc3c2=O)c1 (configuration not stated),inactive: 86%
18,Cc1nc2nncn2c(Nc2ccccc2)c1C,inactive: 78%
19,COc1ccc(OC)c(NC(=O)c2c(N3CCCC3=O)c3cc(OC)ccc3n2C)c1,inactive: 78%

row,SMILES,survival
1,CCOC(=O)c1c(-c2ccccc2)csc1NC(=O)c1cc(=O)c2ccc(C)cc2o1,inactive: 75%
2,CCc1nn2c(=O)cc(COC(=O)c3cccc(NC(=O)c4cccs4)c3)nc2s1,inactive: 94%
3,CCc1cccc(C)c1NC(=O)Cn1cnc2c1c(=O)n(C)c(=O)n2C,inactive: 74%
4,Cc1ccccc1-n1nc(CO)c(C(=O)NCc2cccnc2)n1,inactive: 92%
5,COc1cc(C2NC(=O)c3c(sc4c3CCN(C)C4)N2)cc(Br)c1OC(=O)c1ccc(C)cc1 (configuration not stated),inactive: 68%
6,COCCNC(=O)Nc1cc(C(=O)NCc2ccc(C(C)C)cc2)ccc1N1CCCC1,inactive: 76%
7,CCOC(=O)C1CCN(C(c2ccc(SC)cc2)c2c(O)cc(C)n(Cc3ccco3)c2=O)CC1 (configuration not stated),inactive: 124%
8,COC(=O)c1cc2sc(Cl)cc2n1Cc1c(C)cc(C)cc1C,inactive: 98%
9,CCn1c2ccccc2c2cc(NC(=O)COc3ccc(C)cc3C)ccc21,active: -5%
10,COc1ccc(-c2c(C)c3ccc(O)c(CN4CCOCC4)c3oc2=O)cc1,inactive: 90%
11,CCCCNC(=O)C1CCN(S(=O)(=O)CCC)CC1,inactive: 71%
12,COc1ccc(OC)c(CNC(=O)c2ccc(C)c(NC(=O)c3nsc4ccccc34)c2)c1,inactive: 75%
13,Cc1ccc(Cn2c(CNS(=O)(=O)c3cccc([N+](=O)[O-])c3)nc3cccnc32)cc1,inactive: 128%
14,COc1ccc(-c2cc(C)no2)cc1S(=O)(=O)Nc1c(C)cc(C)cc1C,inactive: 89%
15,CCOc1ccc(OCC)c(NS(=O)(=O)c2cc(-c3cnc(C)o3)ccc2OC)c1,inactive: 88%
16,CCOC(=O)CSC1=Nc2ccccc2C2=NC(CCC(=O)NCc3ccc(F)cc3)C(=O)N12 (configuration not stated),inactive: 69%
17,O=C(NCc1cccc(F)c1)C1CCCN(C(=O)N2CCOc3ccccc32)C1 (configuration not stated),inactive: 86%
18,O=c1nc(N2CCCC2)nc(N2CCCC2)[nH]1,inactive: 78%
19,CC1CN(C(=O)N2CCC(C(=O)NCc3cccs3)CC2)c2cc(Cl)ccc2O1 (configuration not stated),inactive: 63%
